Experimental data published in PMC10150365 (Journal of Medicinal Chemistry, 2023).
Converted amounts (≈) assume the structure as drawn. “And” between values parts separate entries of the source, which are not always exact repeats. Equal entries are not always repeated. Where two headings read alike, the source gives them in different places.

Tests used:
[1] = tested on: SK-OV-3 human ovarian cancer xenografts; settings: single 50 mg/kg po; estimated free tumor concentration
[2] = athymic mice
in vitro [3] = settings: dog, hepatocytes
[4] = Plasma protein binding and blood-to-plasma ratio
in vitro [5] = settings: human, hepatocytes
Vasopressin V1A = biological target: T1, Vasopressin V1A (Homo sapiens, UniProt P37288); experiment: Cerep SafetyScreen-87; assay type: binding; settings: n=2
T1 construct: purchased Eurofins Cerep/Panlabs SafetyScreen-87

[6] = assay type: in vitro ADME; settings: male, CD1, mouse, microsomes, pH 7.4
[7] = Plasma protein binding and blood-to-plasma ratio; remark: listed apart in the source
[8] = minipig
in vitro [9] = assay type: in vitro ADME; settings: mouse, hepatocytes
in vivo [10] = settings: athymic, mouse, whole blood; for Tmax: po
[11] = human
in vivo [12] = settings: athymic, mouse, tumor, po, 50 mg/kg
[13] = pH 1.6
in vitro [14] = settings: rat, hepatocytes
physchem [15] = settings: pH 7.4
physchem [16] = experiment: physchem
[17] = Rat blood PK (Sprague-Dawley); settings: for AUC: t = 24 h
[18] = beagle dogs
Mouse blood PK (BALB/c) = settings: for AUC: po 5 mg/kg, t = 24 h
[19] = tested on: CYP1A2, 2A6, 2B6, 2C8, 2C9, 2C19, 2D6, 3A4; experiment: in vitro; settings: human, microsomes
[20] = from Cav(free) = 10 nM in mouse model, F assumed 0.4
in vivo [21] = settings: both, beagle, dog, plasma

T1 sequence (P37288 whole entry): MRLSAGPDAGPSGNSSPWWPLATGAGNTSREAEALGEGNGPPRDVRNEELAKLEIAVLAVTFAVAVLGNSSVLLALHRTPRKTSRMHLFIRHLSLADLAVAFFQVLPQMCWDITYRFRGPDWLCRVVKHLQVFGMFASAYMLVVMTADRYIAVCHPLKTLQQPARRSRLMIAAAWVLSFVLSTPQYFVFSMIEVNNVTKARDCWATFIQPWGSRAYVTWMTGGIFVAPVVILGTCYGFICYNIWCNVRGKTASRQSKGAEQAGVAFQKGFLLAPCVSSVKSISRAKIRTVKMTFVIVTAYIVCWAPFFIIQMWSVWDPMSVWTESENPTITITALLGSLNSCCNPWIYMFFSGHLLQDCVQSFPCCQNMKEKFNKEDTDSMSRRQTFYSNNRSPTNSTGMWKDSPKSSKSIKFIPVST

In the case of `CCN1CCN(Cc2ccc3cc(C(=O)Nc4cc(NC(=O)c5ccc6c(c5)OCCO6)ccc4F)ccc3n2)CC1` [Compound 22, N-(5-(2,3-Dihydrobenzo[b][1,4]dioxine-6-carboxamido)-2-fluorophenyl)-2-((4-ethylpiperazin-1-yl)methyl)quinoline-6-carboxamide], the “tumor-free Cmax” value [1] is reported as 21 nM, the “Free Cav^0–24h” value ([2]; 5 mg/kg iv) is reported as 2.1 nM and the “iv Cltb” value ([2]; 5 mg/kg iv, 90% CI) is reported as 21 (24–18) mL/min/kg. The “Free Cav^0–24h” value ([2]; 5 mg/kg po) was 0.59 nM, the “Free Cav^0–24h” value ([2]; 17.5 mg/kg po) was 3.1 nM and the “Free Cav^0–24h” value ([2]; 35 mg/kg po) was 10 nM. The “Free Cav^0–24h” value ([2]; 50 mg/kg po) was 24 nM, the “iv CLu” value ([2]; CLtb/fub) was 3000 mL/min/kg and the hepatocyte CLint (in vitro [3]) was 31 µL/min/1e6 cells. For the same molecule, the fub ([4]; athymic mouse blood, fub = fup/B:P) was 0.0070, the “Plasma, fup” value ([4]; athymic mouse, 90% CI) was 0.037 (0.044-0.031) and the hepatocyte CLint (in vitro [5]) was 9 µL/min/1e6 cells. The remaining at 0 h (in vitro [5]) was 139%, the inhibition at 10 µM (Vasopressin V1A) was 20% and the “Pred. in vivo CLu from MLM” value [6] was 58 mL/min/kg. For the same molecule, the fub ([7]; Sprague Dawley rat blood, fub = fup/B:P) was 0.033, the “Plasma, fup” value ([7]; Sprague Dawley rat, 90% CI) was 0.034 (0.041-0.029) and the “Plasma, fup” value ([8]; 90% CI) was 0.11 (0.32-0.037). For the same molecule, the “Blood, fub” value ([8]; fub = fup/B:P) was 0.069, the hepatocyte CLint at 1 h, 1 µM (in vitro [9]) was 53 µL/min/1e6 cells and the remaining at 0 h (in vitro [9]) was 144%. It also gave a half-life at 24 h (in vivo [10]; iv, 5 mg/kg) of 1.5 h, a Tmax (in vivo [10]; 5 mg/kg) of 1.7 h and a Tmax (in vivo [10]; 17.5 mg/kg) of 1.7 h. For the same molecule, the Tmax (in vivo [10]; 35 mg/kg) was 2 h, the Tmax (in vivo [10]; 50 mg/kg) was 1.7 h and the “Plasma, fup” value ([11]; 90% CI) was 0.0037 (0.0052-0.0027). For the same molecule, the “Blood, fub” value ([11]; fub = fup/B:P) was 0.0053, the Tmax (in vivo [12]) was 6 h and the “Thermodynamic solubility FaSSGF” value [13] was 1600 µM. The hepatocyte CLint (in vitro [14]) was 38 µL/min/1e6 cells, the remaining at 0 h (in vitro [14]) was 126% and the chromatographic logD (physchem [15]) was 1.7. The solubility thermodynamic at 4 h (physchem [16]; pH 6.5, Thermodynamic solubility FaSSIF (mean)) was 27 µg/mL (≈ 47.4 µM), the solubility thermodynamic at 4 h (physchem [16]; pH 6.5, Thermodynamic solubility FeSSIF (mean)) was 34 µg/mL (≈ 59.7 µM) and the “iv Cltb” value ([17]; SD rats, iv) was 24 mL/min/kg. For the same molecule, the “Free Cav^0–24h” value ([17]; SD rats, po 5 mg/kg (Table 4)) was 3.7 nm, the “Free Cav^0–24h” value ([17]; SD rats, po (Table S12)) was 3.7 nM and the CLu ([17]; SD rats, CLtb/fub) was 730 mL/min/kg. It also gave a Vdu ([17]; SD rats, Vss/fub) of 220 L/kg, a Vd ([17]; female, Sprague-Dawley (CD), rat, in vivo, iv) of 7.3 L/kg and a Cmax ([17]; female, Sprague-Dawley (CD), rat, in vivo, po, 5 mg/kg) of 240 nM. The half-life at 24 h ([17]; female, Sprague-Dawley, rat, in vivo, iv, 1 mg/kg) was 3.1 h, the Tmax ([17]; female, Sprague-Dawley, rat, in vivo, po, 5 mg/kg) was 6 h and the AUC ([17]; female, Sprague-Dawley, rat, in vivo, po, 5 mg/kg, AUCu^0–t, SD rats) was 0.086 µM·h. For the same molecule, the AUC ([17]; female, Sprague-Dawley, rat, in vivo, po, 5 mg/kg, po AUC^0–t, SD rats) was 2.6 µM·h, the “iv Cltb” value ([18]; iv 0.5 mg/kg) was 21 mL/min/kg and the “Free Cav^0–24h” value ([18]; po (Table S12)) was 1.9 nM. For the same molecule, the Tmax ([18]; po […]) was 2.0 h, the Vdu ([18]; Vss/fub) was 16 L/kg and the “iv Cltb” value (Mouse blood PK (BALB/c); BALB/c mice, iv 5 mg/kg (18: 1 mg/kg), 90% CI) was 10 mL/min/kg and 10 (10–9.7) mL/min/kg. The “Free Cav^0–24h” value (Mouse blood PK (BALB/c); BALB/c mice, po 5 mg/kg (Table 4)) was 3.3 nm, the “Free Cav^0–24h” value (Mouse blood PK (BALB/c); BALB/c mice, po, AUC^inf/24*fub) was 3.3 nM and the CLu (Mouse blood PK (BALB/c); BALB/c mice, CLtb/fub) was 830 mL/min/kg. The Vdu (Mouse blood PK (BALB/c); BALB/c mice, Vss/fub) was 160 L/kg, the Vd (Mouse blood PK (BALB/c); female, BALB/c, mouse, in vivo, iv) was 1.9 L/kg and the half-life at 24 h (Mouse blood PK (BALB/c); female, BALB/c, mouse, in vivo, iv, 5 mg/kg) was 4 h. For the same molecule, the Tmax (Mouse blood PK (BALB/c); female, BALB/c, mouse, in vivo, po, 5 mg/kg) was 2 h, the AUC (Mouse blood PK (BALB/c); female, BALB/c, mouse, in vivo, po, 5 mg/kg, AUCu^0–t, BALB/c mice) was 0.072 µM·h and the AUC (Mouse blood PK (BALB/c); female, BALB/c, mouse, in vivo, po, 5 mg/kg, po AUC^0–t, BALB/c mice) was 6 µM·h. For the same molecule, the IC50 [19] was over 10 µM, the “Predicted Human Dose” value [20] was “less than 210 mg/person/day” and the “Plasma, fup” value (beagle dog (male), 90% CI) was 0.32 (0.40-0.25). The fub (beagle dog blood, fub = fup/B:P) was 0.14, the Vd (in vivo [21]; iv, 0.5 mg/kg) was 2.2 L/kg and the bioavailability (in vivo [21]; po, […]) was 9.1%.
